PubChem BioAssay AID504832 (National Center for Advancing Translational Sciences (NCATS), 2011)
Out of some 310,000 compounds screened, about 18,000 (5.8%) were called active. The inconclusive results got no clear call from the source; some entries with a clear call stand among them for comparison. Calls come from the whole dose curve; as a rule, active = well fitted inhibition curve with a large enough effect; inconclusive = small, poorly fitted or top-dose-only effect, or another doubt; inactive = no such curve, though single readings can be large or run the other way. Potencies of inconclusive entries are left out as doubtful fits.

assay: Primary qHTS for delayed death inhibitors of the malarial parasite plastid, 48 hour incubation; conditions: P. falciparum luciferase growth in erythrocytes; series mostly up to 28.7 µM; activity change, negative = inhibition: at the top concentration
Summary of the method: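 Firefly luciferase activity from engineered P. falciparum reports growth; inhibitors lower the luminescent signal. Cultures contained 2% hematocrit erythrocytes at 0.1% final parasitemia.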
% is set by controls: 0 for no effect and ±100 for the full control effect; potency is the fitted concentration of half-maximal effect; tags give direction and shape of the fitted curve.

Row | SMILES | Potency | activity change, negative = inhibition
1 | COc1ccc(S(=O)(=O)N(C)C)cc1NC(=O)CSc1nc(N)cc(N)n1 | inconclusive [inhibitor, partial curve, poor fit] | –
2 | CC(=O)Nc1ccc(NC(=O)C2C3C=CC(C3)C2C(=O)O)cc1 (stereo not given) | – | inactive: 5.67%
3 | COc1cccc(NC(=O)CN(C)C(=O)CSCC(=O)Nc2ccc(C)cc2)c1 | – | inactive: -9.52%
4 | CCC(C(=O)Nc1ccc(C(=O)Nc2ccccc2C(=O)O)cc1)c1ccccc1 (stereo not given) | – | inactive: 26%
5 | O=C(/C=C/c1cccs1)N1CCCCC1 | – | inactive: 88.6%
6 | COc1cccc(/C=N/NC(=O)c2ccc(N(C)S(=O)(=O)c3ccccc3)cc2)c1OC | inconclusive [inhibitor, partial curve, poor fit] | –
7 | Cc1cccc(N(C(=O)Cn2nnc(-c3ccc(F)cc3)n2)C(C(=O)NC(C)(C)C)c2ccncc2)c1 (stereo not given) | inconclusive [inhibitor, partial curve, poor fit] | –
8 | COC(=O)Cn1c(=NC(=O)c2cc(-c3cccs3)nc3ccccc23)sc2cc(S(N)(=O)=O)ccc21 | inconclusive [inhibitor, single point] | –
9 | N#Cc1cccc(NC(=O)COc2ccc(-n3ccnc3)cc2)c1 | inconclusive [inhibitor, partial curve] | –
10 | Clc1ccc(CSc2nnc3c(n2)[nH]c2ccccc23)cc1 | active: 5.22 µM | –
11 | CC(C)NC(=O)Cn1cnc2c(cnn2-c2ccc(F)cc2)c1=O | – | inactive: -0.684%
12 | O=C(c1ccccc1Nc1ccc(SC(F)F)cc1)N1CCCCCC1 | inconclusive [inhibitor, partial curve, poor fit] | –
13 | CCCOc1ccc2[nH]c(C(=O)N/N=C/c3cc(OC)c(OC)c(OC)c3)cc2c1 | inconclusive [inhibitor, partial curve, poor fit] | –
14 | O=C(Nc1nccs1)c1ccc(N2CCOCC2)c([N+](=O)[O-])c1 | – | inactive: 132%
15 | COC(=O)C1=C(C)N(c2cc(C)cc(C)c2)/C(=C/c2ccc(O)cc2)C1=O | inconclusive [inhibitor, single point] | –
16 | Nc1nc(CN2CCN(Cc3ccc4c(c3)OCO4)CC2)nc(Nc2ccccc2)n1 | inconclusive [inhibitor, single point] | –
17 | CCOC(=O)C1=CC[C@@H](c2cc3ccc(OC)cc3n2C)N(S(=O)(=O)c2ccc(C)cc2)[C@H]1C(=O)OCC | – | inactive: 15.9%
18 | CSc1ccccc1NC(=O)C(=O)c1c[nH]c2ccccc12 | – | inactive: 160%
19 | CC(C)CC1=C/C(=C/c2ccc(-c3ccccc3)o2)C(=O)O1 | inconclusive [inhibitor, partial curve, poor fit] | –
20 | CN(C)S(=O)(=O)c1cccc(NC(=O)c2cc([N+](=O)[O-])ccc2N2CCCCC2)c1 | active: 13.1 µM | –
21 | CCOc1ccccc1-n1nnnc1SCC(=O)NC(=O)NCc1ccco1 | inconclusive [inhibitor, single point] | –
22 | CC(=O)N1c2ccc(S(=O)(=O)NCCC(=O)N(C)Cc3ccccc3)cc2CC1C (stereo not given) | – | inactive: 1.15%
23 | c1ccc2c(c1)C(=NC1CCCCC1)NC2=NC1CCCCC1 | inconclusive [inhibitor, partial curve] | –

Row | SMILES | Potency | activity change, negative = inhibition
24 | CC(C)OC(=O)c1c(NC(=O)c2cccs2)sc2c1CCCC2 | – | inactive: 21.4%
25 | COc1ccccc1-c1noc(CCCC(=O)NC2CCCCC2)n1 | – | inactive: -27.9%
26 | COc1ccccc1C(=O)NCCN1CCN(C(=O)c2ccccc2OC)CC1 | – | inactive: -15%
27 | COCCSc1ccccc1C(=O)N1CCC(Cc2ccccc2)CC1 | inconclusive [inhibitor, partial curve] | –
28 | CCOC(=O)C(=Cc1cc(=O)c(OC)co1)C(=O)OCC | inconclusive [inhibitor, partial curve] | –
29 | CCCN1C(=O)/C(=C2/C=Cc3ccccc3N2CC)SC1=S | inconclusive [inhibitor, single point] | –
30 | C=C(C)CNC(=S)N1CCN(C(c2ccccc2)c2ccccc2)CC1 | inconclusive [inhibitor, partial curve, poor fit] | –
31 | CCCCCCC#Cc1cncc(C(=O)NNC(=O)Nc2cc(Cl)cc(Cl)c2)c1 | – | inactive: 2.23%
32 | CC(=O)c1c(C)nc(Nc2nc3ccccc3s2)nc1C | – | inactive: 310%
33 | Cc1cccc(Nc2nc(-c3ccncc3)cs2)c1 | – | inactive: 40.5%
34 | Cc1nc(-c2ccc(F)cc2)c(CC(=O)N2CCN(S(=O)(=O)c3cccc(F)c3)CC2)s1 | inconclusive [inhibitor, single point] | –
35 | CN(C)S(=O)(=O)c1ccc(Cl)c(NC(=O)CN2CCC(Cc3ccccc3)CC2)c1 | inconclusive [inhibitor, partial curve] | –
36 | COc1cccc(C(=O)CC(C#N)c2ccc(F)cc2)c1 (stereo not given) | inconclusive [inhibitor, single point] | –
37 | CCO[C@H]1OC(C(=O)N2CCN(C)CC2)=C[C@@H](C)[C@@H]1CCCO | – | inactive: 46.5%
38 | CCOC(=O)c1[nH]c(C)c(C(=O)Nc2ccc(C)c(F)c2)c1C | – | inactive: -11.3%
39 | C[C@@]12CCC(=O)C=C1C=CC1C2CC[C@]2(C)C1CC[C@@]21CCC(=O)O1 (stereo not given in full) | inconclusive [inhibitor, partial curve, poor fit] | –
40 | Cc1ccc(C)c(NC(=O)Cc2coc3cc4c(cc23)CCC4)c1 | inconclusive [inhibitor, single point] | –
41 | COc1ccc(N2CCN(C(=O)c3oc4ccccc4c3C)CC2)cc1 | – | inactive: -0.644%
42 | CN1CCN(c2ccc(Cl)cc2NS(=O)(=O)c2ccccc2Cl)CC1 | inconclusive [inhibitor, partial curve, poor fit] | –
43 | COc1ccc(C(=O)/C=C\c2ccc(NC(=O)c3cccs3)cc2)cc1 | inconclusive [inhibitor, partial curve, poor fit] | –
44 | Cn1nc(N2CCN(S(=O)(=O)c3ccccc3)CC2)c(=O)n(C)c1=O | inconclusive [inhibitor, single point] | –
45 | COc1ccc(S(=O)(=O)N2CCC(C(=O)N[C@H](C(=O)N3CCCC3)C(C)C)CC2)cc1 | – | inactive: -10.4%
